From paper PMC10668032
The list shows a part of the results. At the low end of the ranking the order means little.

Molecular target: SIX1-Q177R homeodomain (UniProt Q15475)
Experiment: universal protein binding microarray
Conditions: Universal all-10-mer PBM (8x60K, AMADID 030236), 300 nM GST-tagged protein, Alexa Fluor 488 anti-GST; buffer, salt, pH and temperature not stated; high values mean tight binding; most listed sequences are background and not binding sites; double strand, one strand shown

| Sequence | binding signal |
| --- | --- |
| GTTTGGAA | -0.0805 E-score |
| CGGCTGTC | -0.11 E-score |
| ATTATGTC | -0.0365 E-score |
| CGTACAAC | 0.0264 E-score |
| GAAGACTA | -0.147 E-score |
| ATATGTTG | -0.158 E-score |
| CTAAGACC | -0.0715 E-score |
| CTATTAAG | -0.0518 E-score |
| AGCCAGAG | -0.21 E-score |
| AGTAATAA | 0.0306 E-score |
| ATAGTGCA | -0.0164 E-score |
| ACTCCTAG | 0.199 E-score |
| CCCATGCC | -0.0619 E-score |
| CACTTTAC | 0.221 E-score |
| CTTATGGC | -0.16 E-score |
| AGATTGTG | -0.167 E-score |
| CATGCTAC | 0.0461 E-score |
| GACAACTC | -0.0251 E-score |
| TCACACCA | 0.434 E-score |
| AACTTCAC | -0.0148 E-score |
| CTTACGTC | -0.22 E-score |
| ATTCTTTA | -0.0688 E-score |
| GTCCTAGA | 0.00245 E-score |
| AGTCCCGA | -0.0857 E-score |
| ATATTAGC | -0.0883 E-score |

| Sequence | binding signal |
| --- | --- |
| CCTAGGGC | -0.171 E-score |
| ATCCTTGC | -0.0474 E-score |
| GTTCAACA | 0.126 E-score |
| GTCATGAC | 0.0445 E-score |
| TATCTGCA | -0.00395 E-score |
| CATCAGTA | -0.099 E-score |
| ACAACGTG | 0.0718 E-score |
| CTTCAAGC | -0.24 E-score |
| AAAACGGG | 0.0427 E-score |
| ATGTACAG | -0.0691 E-score |
| ACTGTAAA | -0.0356 E-score |
| GAGACTGC | -0.0836 E-score |
| CTTACAAA | -0.0876 E-score |
| GCATCGCA | -0.284 E-score |
| GCCCTAGC | -0.217 E-score |
| AGTTCTGA | -0.184 E-score |
| CGCCGTGC | 0.188 E-score |
| GGCACCGA | 0.175 E-score |
| GAACACAC | 0.319 E-score |
| ACATACTA | 0.0758 E-score |
| AATGGGGT | 0.246 E-score |
| CGCTTGAA | -0.00516 E-score |
| AGCTCGCC | -0.0696 E-score |
| CCTTCTAC | -0.0353 E-score |
| CGACTTAC | 0.0339 E-score |

| Sequence | binding signal |
| --- | --- |
| GCAAACCA | 0.0633 E-score |
| CAAGACCA | -0.107 E-score |
| CAACTTGG | 0.0289 E-score |
| CTATTAAA | -0.0121 E-score |
| ATGTGGAA | -0.0159 E-score |
| CCGCCTAG | -0.122 E-score |
| GGCACCAA | 0.134 E-score |
| ATTTAATA | -0.019 E-score |
| ATCTGGGA | -0.111 E-score |
| CTCATCAC | 0.126 E-score |
| AAAAGCTA | -0.35 E-score |
| CTCAGTAA | -0.231 E-score |
| CTTGCGTA | -0.0466 E-score |
| AGTTAGAT | 0.0786 E-score |
| GGGCTGAA | 0.032 E-score |
| AAATCGCA | -0.218 E-score |
| CCCTTCGC | 0.083 E-score |
| ACGGGAAT | 0.099 E-score |
| GCCGTTGA | -0.143 E-score |
| GTGTTGCA | 0.385 E-score |
| ATCCCTAC | 0.0362 E-score |
| GTTTGAAA | -0.0581 E-score |
| AACGTCAA | -0.309 E-score |
| GCAAAGTA | -0.176 E-score |
| AGGGCAGG | 0.0335 E-score |

| Sequence | binding signal |
| --- | --- |
| CGTGTGAA | 0.302 E-score |
| ATGTGTAC | 0.23 E-score |
| CTGAACTC | -0.0496 E-score |
| ACGCCGAA | 0.105 E-score |
| AAAAGAAA | -0.0936 E-score |
| GGAGCTAC | -0.0785 E-score |
| TAGGTCCA | -0.159 E-score |
| TGTCCTAA | 0.241 E-score |
| AGCAACCG | -0.202 E-score |
| AGTAATGC | -0.13 E-score |
| CTCGGGTC | 0.155 E-score |
| GGCAAGGA | -0.0867 E-score |
| CCATCAAC | 0.0552 E-score |
| CTCCGATC | 0.0599 E-score |
| CTCTAATA | 0.0502 E-score |
| ACCGGCCA | 0.00128 E-score |
| CGAGTAGC | 0.00077 E-score |
| CACCATGA | 0.289 E-score |
| CCCCTGGA | -0.0143 E-score |
| ATCCCATA | 0.0284 E-score |
| GAGATGAA | 0.0651 E-score |
| AAAGCGCG | 0.0238 E-score |
| AGATTCAC | -0.095 E-score |
| AAAACATG | -0.256 E-score |
| GCGTCGGA | -0.0425 E-score |

| Sequence | binding signal |
| --- | --- |
| ACGCTCCC | -0.066 E-score |
| ATCGTGTC | 0.413 E-score |
| TAGACGCA | -0.099 E-score |
| AACCACTC | 0.0351 E-score |
| TAGGAGGA | -0.0612 E-score |
| AACGTCAC | -0.0625 E-score |
| TACCTTCA | -0.0332 E-score |
| CGACTTTA | -0.0785 E-score |
| GACCTGAA | -0.0819 E-score |
| AAATCCTC | -0.0469 E-score |
| AGATAAAT | -0.205 E-score |
| ATAATCGC | -0.0267 E-score |
| CGGAACGA | 0.0574 E-score |
| GTAGTGGA | -0.069 E-score |
| CTAGTGTA | 0.391 E-score |
| CGCGCTTA | 0.0199 E-score |
| AGATAGGA | -0.19 E-score |
| CGTAATCA | -0.0128 E-score |
| GAGTGGAC | 0.00551 E-score |
| CTACTCAC | 0.0339 E-score |
| GGTTGGTA | 0.0551 E-score |
| AGGGGTGG | 0.083 E-score |
| CAGTCTGC | -0.155 E-score |
| GCCCTCCA | -0.0552 E-score |
| ATAGGAGA | 0.0596 E-score |

| Sequence | binding signal |
| --- | --- |
| GGCATGTA | -0.161 E-score |
| AAGTCTAC | -0.0428 E-score |
| ACGGAATG | -0.202 E-score |
| CTACGCAG | 0.00543 E-score |
| CGTTCCGC | 0.148 E-score |
| CTGACGTA | -0.103 E-score |
| ACTGCTCA | -0.207 E-score |
| ACTACAGC | 0.0365 E-score |
| CGGACTTA | -0.264 E-score |
| CTATGAAC | 0.0259 E-score |
| GTCTCCTA | 0.0363 E-score |
| AATCGAGA | -0.124 E-score |
| CAGGTAAA | -0.0647 E-score |
| GCATACGC | 0.0349 E-score |
| GTGTCAAA | 0.453 E-score |
| CCTCCGAG | 0.137 E-score |
| AAAGGGGA | -0.113 E-score |
| CTTGTAGC | -0.151 E-score |
| CATCCCGA | 0.0181 E-score |
| ATGCGATA | -0.086 E-score |
| AGGTTAAG | 0.0807 E-score |
| CGGGTGGC | 0.178 E-score |
| CTTTTCCA | -0.238 E-score |
| CATTCGGC | -0.0762 E-score |
| CTTGATTC | -0.0262 E-score |

| Sequence | binding signal |
| --- | --- |
| ACTACTAA | 0.0176 E-score |
| GCAGGGAA | -0.227 E-score |
| AAGCTCTC | -0.185 E-score |
| ACTGTATC | 0.0219 E-score |
| CGCGCAGC | 0.0385 E-score |
| GCTATACA | 0.115 E-score |
| CTTAGCGC | -0.072 E-score |
| CATCTCCA | -0.143 E-score |
| CTATTGCA | 0.0449 E-score |
| CGCTAATC | -0.0101 E-score |
| CGCTTCAC | 0.00131 E-score |
| ACTCTGAT | 0.0644 E-score |
| AACACTCC | 0.379 E-score |
| CATCTGCA | -0.176 E-score |
| GAAGGACC | -0.176 E-score |
| CCGCTCGC | -0.04 E-score |
| CCAGAAAC | 0.0863 E-score |
| AAACCAGG | 0.0533 E-score |
| CTATGCAC | 0.0665 E-score |
| CAGTGGGA | 0.11 E-score |
| CGCGCATA | -0.153 E-score |
| AACTAGAG | -0.0362 E-score |
| ACTCTGGC | -0.0466 E-score |
| AAGAGTTA | 0.172 E-score |
| CGGCAGAG | -0.0562 E-score |

| Sequence | binding signal |
| --- | --- |
| AAAGAATG | -0.22 E-score |
| CTAGTTCC | 0.0778 E-score |
| CCGGGGAG | 0.0723 E-score |
| ATGGATTA | -0.0755 E-score |
| GACATCGA | -0.238 E-score |
| AACTAGTT | -0.395 E-score |
| ACTCAAGG | -0.0829 E-score |
| CACGCCTC | 0.177 E-score |
| GGTCTAAA | 0.000265 E-score |
| GGCTTCCA | -0.268 E-score |
| GGATACTA | 0.152 E-score |
| ATCTAAGC | -0.142 E-score |
| GTTTCGCA | -0.116 E-score |
| ATATAGGG | 0.0595 E-score |
| ACTGAATG | -0.0906 E-score |
| ACGCATCT | 0.0591 E-score |
| GGATCCAA | 0.201 E-score |
| ATCTATCG | -0.263 E-score |
| CGTAGTCC | -0.196 E-score |
| CTACACGC | 0.403 E-score |
| ATGTGAGC | -0.161 E-score |
| GAAGGCCA | -0.218 E-score |
| AAGCTTCA | -0.167 E-score |
| ATGAGAAG | -0.056 E-score |
| CAGCTAGA | -0.0892 E-score |

| Sequence | binding signal |
| --- | --- |
| GTCCTTGA | -0.0394 E-score |
| CACTAGAA | -0.00396 E-score |
| AATACAAG | -0.148 E-score |
| ATCAAACC | 0.0868 E-score |
| ACATCAGG | -0.144 E-score |
| GGCCGCTA | -0.139 E-score |
| CTATCACA | 0.147 E-score |
| AGCCACCG | -0.0471 E-score |
| ACAAGATC | 0.0385 E-score |
| GTCCTCAA | -0.252 E-score |
| TCACGTCA | -0.144 E-score |
| CCCTGAGG | 0.177 E-score |
| CACCGAAA | 0.329 E-score |
| TCCTTCCA | -0.00067 E-score |
| GGTGAAAA | 0.0206 E-score |
| CGCATCTC | 0.0235 E-score |
| ATAAAGCA | -0.173 E-score |
| GTGTGGCA | 0.246 E-score |
| CCATCCTC | -0.0125 E-score |
